From the supplement of paper PMC12632987
The full ranking holds about 4,500 sequences; the median of “median log2 fold change of GCK-ALFA target abundance (FLAG IP / Myc IP barcode read proportion)” is about 0.078, and the lowest 2% start at about -0.6. The list shows a part of the results.

B1: GBRAP_52_6068 (protein)
chain: SEAKLDALAQAIAAAIAAGDLEKAKALIKEAIKTLSVEEIKAMLVRAAELVAALGEEAEERFVDLLDEAEDMMLEAGISEEDALLIVGDAEAALARAVAA
B2: GBRAP_14_3774 (protein)
chain: MEEAIKILKETAKEIVALLAEINPALAAEFAAAVDEVVKETIERIKETGDALKAAEEGRERLVARVREILADEPAEVRARAVAVVEVEFGQAILELDELE
B3: GBRAP_139_3690 (protein)
chain: SALAEKLAEAAALARRAAAEGEEALRALARFLASLSPEERERAAAAIGEVALALPFDEAEAFYDALIRIAREELGDEDLAEILEAERNRTLAQIAVREEA
B4: GBRAP_52_6225 (protein)
chain: MAAEARALAQEILRTVRERGVEAAVALLKRIAREHSPELVAAVLAELVRLLEGESAETAEAVLDALIAAEDGLIAAGVDELTVEDAIAAAAAVAVALLKK
B5: GBRAP_80_6814 (protein)
chain: MEEEIEKNLKEIEEIDPELAEKVREIVELARELGVPLRYIARFVKAVLELAKLDLEKARELVDRLLERIREAYAAGDREAALAEIVDAESEALLEVEELE
B6: GBRAP_52_6344 (protein)
chain: SEEEVRAVAEEIAAAVVAGDLEKAVALTREAAKTFTEEEVARMMRLTAERLVAALPDREDLVWEAAFKLAEVIEEELGNEELADEFLAYLARLLVARRQA
B7: GBRAP_128_3430 (protein)
chain: SEEEKVAEAKALIDKALTATVEEVYELTKEFMKVFGTLSKEAQEEVADYFISKLPQLTKEQLLAVADALREQLPTLDPYAQELAADVLVEALNEAEELEE
B8: GBRAP_160_4650 (protein)
chain: EERKEKLKERIKELIEEAYEMMKGETHEERIAIARVMGGDIILELDEDEGVSDEAIEEVDKIMDEFVATLEANPDLTDEEIRALLEEMLKKIFEIIDKYT
B9: GBRAP_80_6832 (protein)
chain: MEERLEENIKKIEEIDPEIAKLVREIVELARAMGVPLERLARMTEAILELAKLDKEKARKLVEETLKEVREEAAKGDAAAVAATLAEAESDALLEAEELE
B10: GBRAP_150_3940 (protein)
chain: DLEELEALFIGIETDAELALDTSNDTLKYVKRALELAKEGIEEADEELKKIAEEIAKKAEEAIKAIEEGAPQEEIDKLLKEIAKLADKGADLVEKKIEEE
B11: GBRAP_52_6267 (protein)
chain: MEERAERLAEEFLEVVLTKDEEEVRAFARELVETESEELIAKMLEIVVKKAETLDAESLERLLEAFLILEEELEEAGKDPLPATDAAARLATLLQAKLAA
B12: GBRAP_11_2931 (protein)
chain: KKEELEKAAKLAEEIAKQLQKLIESGVVKEEDLKEIKKKLEELKKLVEKYGDEYEKKVAEEAAKALEKAEADPSKALEYLKDAYGYVVELEGLLLLRIEE
B13: GBRAP_125_2975 (protein)
chain: SEEEILEDLALVAKRLGLSDDDVEEAVRLAREFSVKGTLYAIMKALGYEEVAELVEKITEEEAKEVLREAAKEIRANPEITPEEAIELIKELLEKAIAKK
B14: GBRAP_128_3382 (protein)
chain: VDEEKLKEVEELVEKMIKASVEEVKELTKEFIEFLKTLSKEEQEKAVEILKKKLPELSKEKLDVVADVIREEMPSLDPYLQNLLADLEVEALNLSVEKEE
B15: GBRAP_125_3012 (protein)
chain: ALEAAVEALEALGARLGLSPDEVAELGEQARAHGVRQALIALFLAEGWEEAAELAAQLSEEEAAAALAELVARLEAHPDLTPEEVKELALEILERHVAAS
B16: GBRAP_137_3680 (protein)
chain: MKVTIEIEREGDVVRITITIEDEETAEETAEKIEDVAVEVGALAISVEKNEDGTWVVEIDVPIEKEEELLEKILEILEDADEVTIIRKEDGKETVEVIKN
B17: GBRAP_11_2934 (protein)
chain: KKEKLKKLLKLAKEAAKLLQEILKLGKLDKKLAEKALKLTEEAAKLAKELGLEEILSLLEIAAEILKEILKLGKLDKTKAAAALALAIDVAHEVEELIEK
B18: GBRAP_78_6718 (protein)
chain: ELEEVLEKAIEVLNEAAKEALKLPEEKSNEVLDLLVEATNLLMEILEPGVKKEEAIKLLEEAIKLLEEAEKLLGDEDPELRKLVKEAKKLAEEALKIAKE
B19: GBRAP_160_4643 (protein)
chain: SESVEDMHEIIEEYSEFALEAIEEGDMENALAAMRMMVGDLVLEADEDPRFSDEDVDELDELGDKFVEELEKNKDKSPEYLKELVEKAKEELKKLVEEHA
B20: GBRAP_137_3657 (protein)
chain: MKIKINVKLDGDFAEVTIEADTEELAELAMDIAYEVAKETGVAYAISLDKENKTVTVDLLGTPEKLKAFIEKLVERLSKEADVELTLEENGKVTKKKIKK
B21: GBRAP_128_3438 (protein)
chain: SQEELLKKALELLDEIVESDVETAAELAKKLAELIGKLNEEAREKVVEYFEEKAKELTEEKLIAVSDALREMVPKLDPLAANALNEMMVILGERILELEE
B22: GBRAP_14_3793 (protein)
chain: MEEIKELLEETIEEIMELIEDLPEEKLEKLRKALKEIAEETLKEIKETGNLEEAMDKMIERSVAATEEILADLPEETRANAVAIVRTELLNTEEEIDEKY
B23: GBRAP_160_4276 (protein)
chain: SEELEELIEELKESKEEILELVDEESPEEVRVFAVTDLGSILLEAIELGLVSEEEEEKMAEIIDELEEELEENKDASKEEIKKIITEHYDKFIEILEKSK
B24: GBRAP_84_6998 (protein)
chain: SNSERAFRLAKEIFDRVKGRTATLVLAVVLLKLSGKTRTRIVEYAIERDPEAAYDALSLAYEVAANDEEEKLEKEAKAEVAKESPEIVAKYNELLELIKK
B25: GBRAP_150_3933 (protein)
chain: DLEELLLLADSVADLLELALNEGIDREKAIKRAQELLEELAKEADPELKKIAEEAQKLLEEAQKLIKEGGPEEEIEKLLKKAQELAEKLAELLEKKIEEE
B26: GBRAP_11_2918 (protein)
chain: KKEELKKIAELLEKLIETLKKLKKEGVDDEELLKKALELAKKALELIKKNLDESSKELAKEAVELLKKAKEDKENAEKYVEEALATAQVLLGQVLLEIEE
B27: GBRAP_128_3416 (protein)
chain: ADAALVAKAKELLEKMKTADAATAAALADEIAALIAAADLETAEAIAEVIEEELPKLTAEQLDILADALRAALPAASPEKAEILAGVLVDALNEAEEKEE
B28: GBRAP_128_3256 (protein)
chain: MNEEVVKYAEETVEKIKNSDKETAQKLADEFMEWLKESSLEDAEQAIEVVKSRLHELSAEKLDILADAARKHRDKFTPEKAELVADLEVEALNEAEEKEE
B29: GBRAP_26_5464 (protein)
chain: MEEAFREASDRVDEIAAKLSNPEAAAAVRAEADTILLELEERIEAGEDIEKAVKEAEEEFLKEAREIGKEEGLPEEEIERLEKELSEVFKELEERLKKAK

Each binder was assayed against GABARAP, O95166 (assay: median log2 fold change of GCK-ALFA target abundance (FLAG IP / Myc IP barcode read proportion) (log2 ratio); each designed protein is fused to an ALFA-tag nanobody in HEK293 cells to bring the named protein to FLAG-tagged glucokinase (GCK); Myc marks an untargeted standard; higher = target protein stabilised (more abundant)). Details: target protein: 3xFLAG-MCP-GCK-ALFA reporter; HEK293 landing pad (RPLP).
Sequence of GABARAP, O95166 (O95166 whole entry, the tested form may be a part): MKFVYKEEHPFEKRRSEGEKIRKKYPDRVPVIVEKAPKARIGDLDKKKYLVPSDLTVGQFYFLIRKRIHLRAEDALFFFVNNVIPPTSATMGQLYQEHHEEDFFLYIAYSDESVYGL
In short: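 An ALFA-nanobody-fused binder library was recombined into HEK293 landing-pad cells and induced with 2 μg mL^−1 doxycycline. Cells were transfected with a plasmid expressing a FLAG-tagged target and a Myc-tagged standard. After 48 h, lysates underwent anti-FLAG and anti-Myc immunoprecipitation, and circular RNA barcodes were reverse transcribed, amplified and sequenced. Target abundance is the per-binder median log2 ratio of FLAG to Myc barcode read proportions. Barcodes needed ≥10^−7 proportion in both replicates, binders ≥3 barcodes per replicate, and a 10^−6 pseudocount was added; the two replicates were pooled.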
For B1, the “median log2 fold change” value was -0.282.
For B2, the “median log2 fold change” value was 0.141.
B3 was tested, and the “median log2 fold change” value was 0.342.
For B4, the “median log2 fold change” value was -0.0741.
In the case of B5, the “median log2 fold change” value is reported as -0.0864.
In the case of B6, the “median log2 fold change” value is reported as 0.0417.
B7 was tested, and the “median log2 fold change” value was -0.0292.
With B8 the “median log2 fold change” value was -0.715.
In the case of B9, the “median log2 fold change” value is reported as 0.354.
With B10 the “median log2 fold change” value was 0.0894.
With B11 the “median log2 fold change” value was 0.115.
B12 was tested, and the “median log2 fold change” value was 0.323.
With B13 the “median log2 fold change” value was -0.235.
In the case of B14, the “median log2 fold change” value is reported as 0.251.
For B15, the “median log2 fold change” value was 0.17.
With B16 the “median log2 fold change” value was -0.123.
With B17 the “median log2 fold change” value was 0.203.
For B18, the “median log2 fold change” value was 0.294.
With B19 the “median log2 fold change” value was -0.284.
With B20 the “median log2 fold change” value was 0.428.
For B21, the “median log2 fold change” value was 0.265.
For B22, the “median log2 fold change” value was -0.103.
For B23, the “median log2 fold change” value was -0.247.
In the case of B24, the “median log2 fold change” value is reported as -0.136.
In the case of B25, the “median log2 fold change” value is reported as 0.0952.
In the case of B26, the “median log2 fold change” value is reported as 0.213.
B27 was tested, and the “median log2 fold change” value was 0.247.
For B28, the “median log2 fold change” value was 0.367.
For B29, the “median log2 fold change” value was 0.274.
